Screen size: about 310,000 compounds; about 14,000 (4.5%) showed an effect of 50% or more. Effects have a minus sign here. This is one part of the list.
target: human ether-à-go-go-related gene (hERG) potassium channel (human, UniProt Q12809); test: primary screen, population patch clamp on CHO cells stably expressing hERG
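Further: peak tail current of the secondary pulse compared with the same well before compound.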

Sequence of human ether-à-go-go-related gene (hERG) potassium channel (Q12809 whole entry, looked up): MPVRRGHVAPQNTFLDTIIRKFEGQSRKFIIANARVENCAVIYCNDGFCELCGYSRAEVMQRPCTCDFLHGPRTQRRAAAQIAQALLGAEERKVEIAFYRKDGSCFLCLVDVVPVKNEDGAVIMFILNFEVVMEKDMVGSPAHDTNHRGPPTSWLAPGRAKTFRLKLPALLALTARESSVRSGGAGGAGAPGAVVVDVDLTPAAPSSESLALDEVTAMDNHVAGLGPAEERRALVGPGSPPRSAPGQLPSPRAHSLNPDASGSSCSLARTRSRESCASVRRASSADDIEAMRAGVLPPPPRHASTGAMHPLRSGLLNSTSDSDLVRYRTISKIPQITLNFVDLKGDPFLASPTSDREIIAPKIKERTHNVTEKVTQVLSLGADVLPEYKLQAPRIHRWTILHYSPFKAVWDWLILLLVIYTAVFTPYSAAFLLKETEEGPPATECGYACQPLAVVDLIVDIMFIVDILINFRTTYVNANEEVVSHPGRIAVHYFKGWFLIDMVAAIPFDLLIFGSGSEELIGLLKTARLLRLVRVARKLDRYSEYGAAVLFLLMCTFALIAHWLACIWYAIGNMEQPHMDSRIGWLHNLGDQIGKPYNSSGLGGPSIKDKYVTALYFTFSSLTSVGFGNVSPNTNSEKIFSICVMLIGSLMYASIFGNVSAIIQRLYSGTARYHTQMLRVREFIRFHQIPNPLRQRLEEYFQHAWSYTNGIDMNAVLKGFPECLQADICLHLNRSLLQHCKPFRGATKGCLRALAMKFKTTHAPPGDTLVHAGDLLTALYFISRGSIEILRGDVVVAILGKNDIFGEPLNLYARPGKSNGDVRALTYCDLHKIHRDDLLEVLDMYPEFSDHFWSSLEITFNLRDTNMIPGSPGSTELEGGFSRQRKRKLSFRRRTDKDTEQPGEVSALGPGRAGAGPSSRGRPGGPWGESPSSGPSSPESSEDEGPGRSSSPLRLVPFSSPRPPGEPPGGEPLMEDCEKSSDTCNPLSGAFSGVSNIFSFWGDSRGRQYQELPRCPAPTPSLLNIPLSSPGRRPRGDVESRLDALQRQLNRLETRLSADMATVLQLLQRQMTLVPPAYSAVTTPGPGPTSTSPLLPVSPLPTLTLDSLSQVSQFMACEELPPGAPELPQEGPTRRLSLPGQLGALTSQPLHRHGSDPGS

In order of rising “hERG current change (%, negative = inhibition) at 10uM” value:
1. Br.CCCCCCCCn1c2c(c(=N)c3c1CCC3)CCCC2  -76.1%
2. CCN(CC)S(=O)(=O)c1cccc(NC(=O)COC(=O)C2=COCCO2)c1  -13.8%
3. CC(C)Oc1ccc(C(=O)Nc2c3c(nn2C(C)(C)C)CS(=O)(=O)C3)cc1  -11.9%
4. C#Cc1ccc([C@H]2C=C(C(=O)N3CCN(Cc4ccc5c(c4)OCO5)CC3)O[C@@H](OCC)[C@@H]2CCCO)cc1  -11.9%
5. Cc1c(-c2ccccc2)nc(N)c(C#N)c1-c1cccnc1  -9.64%
6. Cc1ccc2[nH]c(=O)c(CN(C)C(=O)c3cccs3)cc2c1  -5.06%
7. COC(=O)C(C)N(C#N)c1nc(C)nc(C)n1 (stereo not drawn)  -2.45%
8. COc1ccc(NC(=S)NCc2ccco2)c(OC)c1  -2.08%
9. COc1ccc(C(=O)Nc2cc(C)nc3ccccc23)cc1OC  -2.07%
10. CCOC(=O)c1ccc(NC(=O)NCc2ccccn2)cc1  -0.339%
11. O=C(NC(=S)Nc1nc(-c2ccc(Br)cc2)cs1)c1cccnc1  3.69%
12. COc1cc(-c2nn3c(Cc4ccccc4)nnc3s2)cc(OC)c1OC  4.49%
13. COc1ccc(Cn2c(CCC(=O)Nc3ccc(C)cc3)nc3cccnc32)cc1  4.81%
14. CCOC(=O)C1CCN(c2cc3c(cc2NC(=O)c2ccccc2F)n(C)c(=O)n3C)CC1  7.95%
15. O=C(O)c1ccccc1C(=O)N(Cc1ccccc1)Cc1ccccc1  8.03%
16. CCOC(=O)c1sc(=NC(=O)/C=C/c2cccs2)n(C)c1C  11.6%
17. CCOC(=O)C1CCCc2c1[nH]c1c(C(=O)O)cccc21 (stereo not drawn)  13.3%
18. N#Cc1c(NC(=O)CCn2cnc3ccccc3c2=O)oc(-c2ccccc2)c1-c1ccccc1  13.6%
19. O=c1cc(Nc2ccc3c(c2)OCCO3)[nH]c(=O)n1-c1ccc(Br)cc1  14.3%
20. Cc1ccc(S(=O)(=O)NCCc2ccncc2)cc1[N+](=O)[O-]  15.8%
21. Cc1cc(NC(=O)CSc2nnnn2-c2ccccc2F)no1  16.1%
22. O=C(Nc1ccc(O)cc1C(=O)O)c1ccc(NC(=O)c2ccco2)cc1  16.9%
23. NS(=O)(=O)c1ccc(C(=O)O)cc1  19.7%
24. N#Cc1c(-c2ccccc2)nc(SCc2ccc(Cl)cc2)[nH]c1=O  21.9%
